Test results: article PMC4336329 (PLoS ONE, 2015)
The campaign covered roughly 310,000 compounds. About 2,200 (0.71%) showed an effect of 50% or more. Effects have a minus sign here. The list shows a part of the results.

The molecules below were run against human ether-à-go-go-related gene (hERG) potassium channel (human, UniProt Q12809) (assay: primary screen, population patch clamp on CHO cells stably expressing hERG).
Sequence of human ether-à-go-go-related gene (hERG) potassium channel (Q12809 whole entry, looked up): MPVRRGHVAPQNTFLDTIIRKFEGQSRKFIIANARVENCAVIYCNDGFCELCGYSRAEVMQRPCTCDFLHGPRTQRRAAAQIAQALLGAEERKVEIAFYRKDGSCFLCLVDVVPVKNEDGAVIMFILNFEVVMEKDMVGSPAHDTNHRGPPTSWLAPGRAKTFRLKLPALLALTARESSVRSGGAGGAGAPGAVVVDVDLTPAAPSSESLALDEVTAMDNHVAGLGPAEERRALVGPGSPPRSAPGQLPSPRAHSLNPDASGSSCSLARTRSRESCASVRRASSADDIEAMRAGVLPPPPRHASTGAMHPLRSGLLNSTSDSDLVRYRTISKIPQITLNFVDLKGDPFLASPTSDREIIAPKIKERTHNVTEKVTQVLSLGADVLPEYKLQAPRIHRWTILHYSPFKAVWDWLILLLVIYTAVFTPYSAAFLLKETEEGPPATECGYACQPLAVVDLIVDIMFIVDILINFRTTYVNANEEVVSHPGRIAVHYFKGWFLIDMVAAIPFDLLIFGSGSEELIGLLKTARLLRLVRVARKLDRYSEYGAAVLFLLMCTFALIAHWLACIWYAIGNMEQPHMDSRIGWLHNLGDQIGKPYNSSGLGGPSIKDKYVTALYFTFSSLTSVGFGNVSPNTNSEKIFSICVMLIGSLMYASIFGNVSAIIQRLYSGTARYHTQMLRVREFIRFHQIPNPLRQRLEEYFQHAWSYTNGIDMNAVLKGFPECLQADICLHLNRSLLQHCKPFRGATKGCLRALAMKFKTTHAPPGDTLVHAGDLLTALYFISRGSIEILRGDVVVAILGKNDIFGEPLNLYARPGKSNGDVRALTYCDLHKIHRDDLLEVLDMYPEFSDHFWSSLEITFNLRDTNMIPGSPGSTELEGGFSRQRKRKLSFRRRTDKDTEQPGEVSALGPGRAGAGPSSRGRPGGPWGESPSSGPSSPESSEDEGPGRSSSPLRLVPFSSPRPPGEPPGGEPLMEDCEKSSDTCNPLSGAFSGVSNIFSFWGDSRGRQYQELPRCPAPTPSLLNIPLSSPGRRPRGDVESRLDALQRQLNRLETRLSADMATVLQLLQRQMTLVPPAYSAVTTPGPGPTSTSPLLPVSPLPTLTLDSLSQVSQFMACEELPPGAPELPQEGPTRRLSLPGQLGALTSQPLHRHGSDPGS

| Structure (SMILES) | hERG current change (%, negative = inhibition) at 1uM |
| --- | --- |
| CCN(CC)C(=O)Nc1ccc(Br)cc1 | -1.03% |
| Cl.O=C(CN1CCC(NC(=O)c2ccccc2F)CC1)Nc1ccc2c(c1)OCCO2 | 13.1% |
| CCN(C(=O)C1=COCCO1)c1nc2c(C)cccc2s1 | 0.721% |
| COc1ccc(C(=O)CC(=O)C(=O)Nc2ccc(C)c(Cl)c2)cc1 | 14.4% |
| CC(C)Oc1ccc(C(=O)Nc2ccccc2N2CCOCC2)cc1 | 2.01% |
| COc1cc(CN2CCC(n3nccc3NC(=O)CCCc3ccccc3)CC2)ccc1O | -5.54% |
| COCCNCCCCOc1ccc(Br)cc1C.O=C(O)C(=O)O | -12.5% |
| CCC(=O)Nc1sc2c(c1C(N)=O)CCN(Cc1ccccc1)C2.Cl | 0.596% |
| COc1ccc(CCN(C)c2ccc(S(=O)(=O)N3CCCC3)cc2[N+](=O)[O-])cc1OC | 11.8% |
| CCCCN(CCCC)S(=O)(=O)c1ccc2oc(C(=O)N3CCOCC3)c(C)c2c1 | -0.622% |
| Cc1ccccc1OCC(=O)N=Nc1c(O)n(C)c2ccccc12 | -1.91% |
| COc1ccc(C(C(=O)NC2CCCC2)N(C(=O)c2ccco2)c2ccc(OC)c(OC)c2)cc1 (stereo not drawn) | 8.34% |
| O=C(NNC(=S)Nc1ccc(Br)cc1Cl)c1ccncc1 | 7.19% |
| O=C(CN1CC(c2ccccc2)CC1=O)OCc1cccc(Br)c1 (stereo not drawn) | 16.3% |
| Cc1c(C(=O)NNC(=S)Nc2ccc(S(N)(=O)=O)cc2)oc2ccccc12 | 18.2% |
| CCC(=O)N(Cc1cc(=O)[nH]c2ccccc12)c1ccccc1 | 8.16% |
| COC(=O)C1=C(c2cccc(OC)c2OC)C[C@@H]2CC[C@H]1N2C(=O)NCCO | 19.5% |
| O=P(CCN1CCCCC1)(c1ccccc1)c1ccccc1 | 11.1% |
| CCOc1ccc(OCc2ccc(C(=O)NN)o2)cc1 | 9.4% |
| CS(=O)(=O)NCc1nnc2n1-c1ccc(Cl)cc1C(c1ccccc1)=NC2 | 7.22% |
| Cc1nn(-c2ccccn2)c2c1C(c1ccncc1)C1=C(CC(C)(C)CC1=O)N2 (stereo not drawn) | -4.81% |
| COc1ccc(C2=NOC(COc3ccc4c(C)cc(=O)oc4c3)C2)c(OC)c1 (stereo not drawn) | 3.24% |
| CC(=O)c1cccc(NC(=O)c2ccc(S(=O)(=O)N3CCCC3)cc2)c1 | 13.4% |
| CCNc1ccc(C(=O)O)cc1N | 9.47% |
